From PubChem BioAssay (Tox21)
Values joined by “and” are separate entries in the source; they are usually repeats but may differ in a detail not shown here. Equal entries are not always repeated. The shares of active, inactive and inconclusive entries below differ from those in the screen. A potency beside an inconclusive call is a rough fit, not a confirmed value. Active and inactive are the calls of the source. The call rests on the fitted dose curve; in most records, active means well fitted cell-killing curve with a large enough effect in the repeat runs; inconclusive means weak or mixed curves, or effect the other way; inactive means flat fitted curve, though single readings scatter.

assay: cAMP Responsive Elements (CRE) small molecule antagonists, cell-based qHTS assay: qHTS cell viability counter screen (AID 2060913); conditions: CRE-bla HEK293T viability, CellTiter-Glo luminescence, 5 h; series mostly up to 92.4 µM; further: nearly all actives have a fitted effect of over 40% in size
Method in brief: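 Viability of NKH477-stimulated (0.25 uM final) CRE-bla HEK293T cells is measured by CellTiter-Glo luminescence following 3 hrs compound exposure at 37 C.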
On the % scale 0 is the no-effect control and ±100 the full control effect; potency means the concentration at half of the fitted maximal effect; tags describe the fitted curve by direction and shape.

Row | Compound | Potency | viability change, negative = cytotoxic
1 | CCCC[P+](CCCC)(CCCC)CCCC | inconclusive: 31.2 µM [cytotoxic, partial curve, poor fit] | 
2 | O=c1cc(-c2ccccc2)oc2cc(O)cc(O)c12 | inconclusive: 77 µM [rising, partial curve, poor fit] | 
3 | O=C(CC(C(=O)OC1CCCCC1)S(=O)(=O)O)OC1CCCCC1 (centres undefined) | inactive | 
4 | COc1cc2c(cc1OC)-c1cc3ccc(OC)c(OC)c3c[n+]1CC2 | inactive | 
5 | O=C(Nc1ccccc1)Nc1ccccc1 | inconclusive: 27.4 µM [cytotoxic, single point] | 
6 | C#CC(C)(O)CC(C)C (centres undefined) | inactive | 
7 | CCCCCCCCN(C)CCCCCCCC | inactive | 
8 | OCCN1CCN(CCCN2c3ccccc3Sc3ccc(Cl)cc32)CC1 | inconclusive: 33.5 µM [cytotoxic] | 
9 | CC1(C)CCC[C@]2(C)[C@H]3CC(=O)O[C@]3(C)CC[C@@H]12 | inconclusive: 45.2 µM [cytotoxic, partial curve, poor fit] | 
10 | Cc1cc(N)c(S(=O)(=O)O)cc1Cl | inactive | 
11 | CC1=C(C/C=C(\C)CCC[C@H](C)CCC[C@H](C)CCCC(C)C)C(=O)c2ccccc2C1=O | inactive | 
12 | O=c1[nH]c(=O)c2[nH]c(=O)[nH]c2[nH]1 |  | inactive: -5.49% [at 8.39 µM]
13 | CCOc1ccc(NC(N)=O)cc1 | inactive | 
14 | Clc1ccc(Cl)c(Cl)c1Cl | inactive | 
15 | CN(C)C(=S)SC(=S)N(C)C | active: 62.7 µM and active: 3.2 µM and inconclusive: 11.9 µM [cytotoxic, partial curve] | 
16 | C=C(C)C(=O)OCC1CCCO1 (centres undefined) | inactive | 
17 | CCCCCCCC(=O)Oc1c(Br)cc(C#N)cc1Br | inconclusive: 68.3 µM [cytotoxic, single point] | 
18 | O=C(Nc1ccc(Cl)cc1)Nc1ccc(Cl)c(C(F)(F)F)c1 | active: 26.6 µM | 
19 | C=O | inactive | 
20 | CC(C)(C)CC(C)(C)c1ccc(OCCO)cc1 | inconclusive: 24.2 µM [cytotoxic, single point] | 

Row | Compound | Potency | viability change, negative = cytotoxic
21 | O=C(CCN1CCC(c2ccccc2)C1)c1ccc2c(c1)OCCO2 (centres undefined) | inactive | 
22 | CC(=O)S[C@H](C(=O)N[C@H]1Cc2ccccc2[C@H]2CCC[C@@H](C(=O)O)N2C1=O)C(C)C | inactive | 
23 | COc1cccc2c1C(=O)c1c(O)c3c(c(O)c1C2=O)C[C@@](O)(C(C)=O)C[C@@H]3O[C@H]1C[C@H](N)[C@H](O)[C@H](C)O1 | inconclusive: 34.6 µM [rising, partial curve, poor fit] | 
24 | NC(=O)C1(N2CCCCC2)CCN(CCCN2c3ccccc3CCc3ccc(Cl)cc32)CC1 | inconclusive: 33.5 µM [cytotoxic, single point] | 
25 | NC(=O)CC[C@@H](N)C(=O)O | inactive | 
26 | CN1CCCC1=O | inactive | 
27 | NS(=O)(=O)c1cc(C(=O)O)c(NCc2ccco2)cc1Cl | inactive | 
28 | C/C(=N\O)[C@@H](C)NCC(C)(C)CN[C@H](C)/C(C)=N/O | inconclusive: 0.0007 µM | 
29 | C[C@H]1O[C@H](O[C@H]2[C@H](O)[C@@H](O)[C@@H](O[C@H]3[C@H](O)[C@@H](O)[C@H](O)O[C@@H]3CO)O[C@@H]2CO)[C@H](O)[C@@H](O)[C@@H]1N[C@H]1C=C(CO)[C@@H](O)[C@H](O)[C@H]1O | inactive | 
30 | CC(=O)OCc1ccccc1 | inconclusive: 0.0098 µM [rising, full curve, poor fit] | 
31 | COc1ccc(Cl)cc1C(=O)NCCc1ccc(S(=O)(=O)NC(=O)NC2CCCCC2)cc1 | inconclusive: 33.5 µM [rising, partial curve, poor fit] | 
32 | CCCCCCCCOCCCN | inactive | 
33 | CC1=CCC(=C(C)C)CC1 | inconclusive: 14.3 µM [cytotoxic, single point] | 
34 | C=C(C)C(=O)O[C@H]1C[C@@H]2CC[C@@]1(C)C2(C)C | inconclusive: 30.5 µM [cytotoxic, partial curve] | 
35 | CC(=O)c1ccccn1 | inactive | 
36 | CC(=O)CCC(C)C | inconclusive: 1.28 µM [cytotoxic, single point] | 
37 | N#CCc1cccc(C(F)(F)F)c1 | inactive | 
38 | CCOC(=O)CN | inconclusive: 68.6 µM [cytotoxic, single point] | 
39 | COc1cc(C(=O)NC2CCN(C)CC2)ccc1Nc1ncc2c(n1)N(C1CCCC1)CC(F)(F)C(=O)N2C | inconclusive: 58.6 µM [cytotoxic, single point] | 
